# In PMC7819943, “Rice protein-binding microarrays: a tool to detect cis-acting elements near promoter regions in rice”:
# Some of the results follow.
# Biological target: T1, OsWOX13 (Oryza sativa, UniProt Q5QMM3 1-267)
# T1 sequence: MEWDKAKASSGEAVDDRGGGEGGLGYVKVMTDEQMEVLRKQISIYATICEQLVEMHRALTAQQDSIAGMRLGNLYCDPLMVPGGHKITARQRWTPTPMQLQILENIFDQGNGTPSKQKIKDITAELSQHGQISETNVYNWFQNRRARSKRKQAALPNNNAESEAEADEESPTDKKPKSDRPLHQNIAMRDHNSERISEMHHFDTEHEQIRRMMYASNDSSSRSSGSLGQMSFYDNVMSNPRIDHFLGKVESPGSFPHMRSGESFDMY
# Test: protein-binding microarray (RPBM); PBS, 2% BSA, 51.3 ng/ul salmon testes DNA, 50 uM zinc acetate, 200 nM TF, 25 C, 1 h; high values mean tight binding
# Conditions: protein: recombinant; tags: N-terminal polyhistidine and DsRed monomer fusion (pET32a); label: CyDye5-dUTP incorporated in the synthesized complementary strand; 3' TTTTT single-stranded linker to array surface; dsDNA, one strand shown
# Summary of the method: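 Ni–NTA purification followed expression in E. coli BL21-CodonPlus of transcription factors fused N-terminally to a polyhistidine tag and DsRed. At 200 nM in PBS with 2% BSA, salmon testes DNA and 50 µM zinc acetate, the protein was incubated for 1 h at 25 °C with a custom Agilent array that had been primer-extended with Cy5-dUTP and blocked with 2% BSA. After washing, the array was read on an Axon 4000B scanner. The binding signal is per-feature fluorescence intensity in arbitrary units.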
row,Sequence,binding signal
1,TCAGTTTAAATGTGGCTCTCAATCAAACACTAGCTTAAGACGGAGTCACCTAGTGCAG,3450 fluorescence intensity (a.u.)
2,TCTGTTCAGTTGTAATTGGCAACTTTACTCGTCTTATTGCCGGAGTCACCTAGTGCAG,4000 fluorescence intensity (a.u.)
3,TCAAATCGATGGAGTAAATTAACGATATTGTCTATGCATACGGAGTCACCTAGTGCAG,3260 fluorescence intensity (a.u.)
4,ATCCAAATTAATTGTTTTAAAATAGTTTTAAGAAGGATCTCGGAGTCACCTAGTGCAG,35900 fluorescence intensity (a.u.)
5,TAGCTTAATTCAATCATTATTGGTTCGTTACATTCTAGCTCGGAGTCACCTAGTGCAG,18600 fluorescence intensity (a.u.)
6,CACTTCGGATTGTCAATCGAGCCATTATCCTCTTCCTCTCCGGAGTCACCTAGTGCAG,11800 fluorescence intensity (a.u.)
7,GGTGATTAGACCGGTGATCTATACCGGTCAGACCGATAGCCGGAGTCACCTAGTGCAG,47800 fluorescence intensity (a.u.)
8,CGATAAATGATAGAATTGCAAAAGCTAAACGAACTTTCGACGGAGTCACCTAGTGCAG,9010 fluorescence intensity (a.u.)
9,CTGGTTAAATTTACACTAGATCTTTAGTTCCGTAATTTGTCGGAGTCACCTAGTGCAG,9470 fluorescence intensity (a.u.)
10,ACATGACATGTAATTAGAAAGACTCTATGGCTAACATTCACGGAGTCACCTAGTGCAG,8360 fluorescence intensity (a.u.)
11,TAAAACTGTAATCAAACAGTAAATAACAGAATATCTAGTACGGAGTCACCTAGTGCAG,9920 fluorescence intensity (a.u.)
12,ATTGATAACGGCAGACTAACTGATACGACAGAGATGGTCACGGAGTCACCTAGTGCAG,7620 fluorescence intensity (a.u.)
13,TGCTTTAATTTATTTACCTTACATTTTGCTACTCACATAACGGAGTCACCTAGTGCAG,7000 fluorescence intensity (a.u.)
14,AATAATTCATCAATTAATTTACCTTATATTTCATACTTATCGGAGTCACCTAGTGCAG,28800 fluorescence intensity (a.u.)
15,TTATTGTCTGATTGTCTGGAGATAGGCTTGCTGGTCATGGCGGAGTCACCTAGTGCAG,23600 fluorescence intensity (a.u.)
16,TATATAGTTCAATCAAACTCGGATAGAGAAATGACCAAAACGGAGTCACCTAGTGCAG,5400 fluorescence intensity (a.u.)
17,CCATTAGATTGGAAGGGGAAACTATTTCGATCCCTCGAGGCGGAGTCACCTAGTGCAG,33800 fluorescence intensity (a.u.)
18,AATTAATTAACAAAGGTTAACTTTCACATCATCTAATCCTCGGAGTCACCTAGTGCAG,28600 fluorescence intensity (a.u.)
19,GCCCGTGACAGGAGAGGATAAGGTTGCCAGCGTGTGGGGTCGGAGTCACCTAGTGCAG,4240 fluorescence intensity (a.u.)
20,TTAGATGATAAAATATGATTAATACTTTATGCGTGACTTACGGAGTCACCTAGTGCAG,8210 fluorescence intensity (a.u.)
21,ATGATGTAATATAATTAGCTGATCTCAGCTCACTCCCAGGCGGAGTCACCTAGTGCAG,21400 fluorescence intensity (a.u.)
22,GACCTCAAAATTTTGATAATTTGAGTTGAGAGGGAGAGGACGGAGTCACCTAGTGCAG,8100 fluorescence intensity (a.u.)
23,CTTAACTTTAAATATATAATTTTATAATAATTTTACGTTGCGGAGTCACCTAGTGCAG,17500 fluorescence intensity (a.u.)
24,ACACCATGCATTTAATTGGTGATAAAATCACATCCTTATCCGGAGTCACCTAGTGCAG,5680 fluorescence intensity (a.u.)
25,CATGATAGATCAATCTCTTTCTTTTGTTATCCAGCAGTACCGGAGTCACCTAGTGCAG,32600 fluorescence intensity (a.u.)
26,ACAAAACTATAAATTTAGCGGTAAATTTACTATAAAACTACGGAGTCACCTAGTGCAG,12000 fluorescence intensity (a.u.)
27,AAAATATATTAATTTTAATCAATTATTATTTTGGTAGTTTCGGAGTCACCTAGTGCAG,28400 fluorescence intensity (a.u.)

row,Sequence,binding signal
1,GTATATAAATTAGCTCAACCAAAGGATCAGTTTAACGCGCCGGAGTCACCTAGTGCAG,5250 fluorescence intensity (a.u.)
2,TATAAATAATGGACAACTAGTTTCTGAGCTTTTAGTGGTTCGGAGTCACCTAGTGCAG,6110 fluorescence intensity (a.u.)
3,GAAGATAATTTTACCGGTACTCTGGTACGTCATCCGTGTACGGAGTCACCTAGTGCAG,5360 fluorescence intensity (a.u.)
4,CACTTCTCTGATTATTGTTGTTGTTCTTCCCGTGCTGATTCGGAGTCACCTAGTGCAG,10600 fluorescence intensity (a.u.)
5,TCAAATTTATGGTATATTTACCAAATTTTGGTAAGAAACCCGGAGTCACCTAGTGCAG,4110 fluorescence intensity (a.u.)
6,GACATGGCAATTAACGATTTGCCACACCCTGTCAATGACACGGAGTCACCTAGTGCAG,6380 fluorescence intensity (a.u.)
7,TATAATTTTGTCATAAATAAAATATTTTAAGCAATATCGTCGGAGTCACCTAGTGCAG,15900 fluorescence intensity (a.u.)
8,GGCTAGATTGTTATGCAGGCCCCACTGCGCACCGCTTCCTCGGAGTCACCTAGTGCAG,7150 fluorescence intensity (a.u.)
9,TTTGCGAAAATGAAGGGTGGTGATTGGTGAAGATTCCTAGCGGAGTCACCTAGTGCAG,7840 fluorescence intensity (a.u.)
10,ACTACGTTCCCAATCACGAGCCCCGTTCCGGATTTCGCTCCGGAGTCACCTAGTGCAG,4930 fluorescence intensity (a.u.)
11,CCCAAATGACTATGTCATATCAATGAGGATGTGAATCAAACGGAGTCACCTAGTGCAG,3260 fluorescence intensity (a.u.)
12,AACAAATTAATTAGATAAGATATAGGCTGAGTTTGTTAGGCGGAGTCACCTAGTGCAG,47500 fluorescence intensity (a.u.)
13,CACTCTCTCTCGCTGTCTTTCTCTCCTTCCATTTCATTTCCGGAGTCACCTAGTGCAG,4800 fluorescence intensity (a.u.)
14,CAAACTGATTTCTCTACCATCTAGTTTTACTTTGCAGAATCGGAGTCACCTAGTGCAG,11100 fluorescence intensity (a.u.)
15,GGAAGCTAATTATAATCCGACTTAACACCTCTACACGTCACGGAGTCACCTAGTGCAG,13900 fluorescence intensity (a.u.)
16,CACATTAATTAGGTTAATGTACTACTACATCCATTCTAAACGGAGTCACCTAGTGCAG,16900 fluorescence intensity (a.u.)
17,TTTGACTGAGGGAGTATATGCATATATATTGGTTATCGGCCGGAGTCACCTAGTGCAG,11900 fluorescence intensity (a.u.)
18,TGTGATTGCAGCATAAACCCTGGGAACGTCCGCTGGGGCTCGGAGTCACCTAGTGCAG,34900 fluorescence intensity (a.u.)
19,ATTCCTGATTAATCTCCGCAATTCCATCCCGCCGATTCATCGGAGTCACCTAGTGCAG,19700 fluorescence intensity (a.u.)
20,TTGCTTGTTTGTGACAGACAGATTGATGTGGAAGAGTAGTCGGAGTCACCTAGTGCAG,16300 fluorescence intensity (a.u.)
21,TTGTAATGACAATCACGAGAGAAGAAGCGGAGAGCAAGGACGGAGTCACCTAGTGCAG,13600 fluorescence intensity (a.u.)
22,AATAAGACTCCAATCACGTGCAACCGAGATCAGGATACTTCGGAGTCACCTAGTGCAG,6150 fluorescence intensity (a.u.)
23,TGAAATTACCTGATGGCACAACACTTCTATTTTGTTGCCTCGGAGTCACCTAGTGCAG,10300 fluorescence intensity (a.u.)
24,GAAAATAATTAAGACAGTATATATTACACCTATTTGTGAACGGAGTCACCTAGTGCAG,5540 fluorescence intensity (a.u.)
25,ATAATCACACTCAATCTCAGGTTCTTGCTCCACGTACTCCCGGAGTCACCTAGTGCAG,3520 fluorescence intensity (a.u.)
26,GATATTGACAGGCAAATACGGAGTAGCTTTCAAAATTTTGCGGAGTCACCTAGTGCAG,13000 fluorescence intensity (a.u.)
27,ACAGTAATTTCCTACCAAATTGTAATGTTACTTAGCCAGTCGGAGTCACCTAGTGCAG,21000 fluorescence intensity (a.u.)
